Source: the supplement of paper PMC6089552
About 300 (9.4%) of roughly 3,200 compounds showed activity. Only a part is listed here, and it is no random draw.

Test system: A673/TR/shEF
Assay: cell viability (LOESS-normalised, relative to median of negative controls) (log2 ratio); higher = more viable cells (less compound effect), active = hit call of the paper (over 3 MAD below the median)
Conditions: treatment time: 72 h
Summary of the method: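 For three days, A673/TR/shEF Ewing sarcoma cells in 384-well plates (1,500 per well) were treated with library compounds at two or more concentrations or with DMSO controls, after doxycycline had been added or withheld 24 h beforehand to induce EWS-FLI1 shRNA knockdown. Viability was read by CellTiter-Glo luminescence on an Envision reader. The data were LOESS-corrected per plate, divided by the median of negative controls and log2-transformed.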

[1] = 0.103 µM, library screen: screen3, EWS-FLI1 expression: high (no doxycycline)
[2] = 0.103 µM, library screen: screen3, EWS-FLI1 expression: low (doxycycline-induced shRNA knockdown)
[3] = 0.25 µM, library screen: screen1, EWS-FLI1 expression: high (no doxycycline)
[4] = 0.25 µM, library screen: screen1, EWS-FLI1 expression: low (doxycycline-induced shRNA knockdown)
[5] = 0.25 µM, library screen: screen2, EWS-FLI1 expression: high (no doxycycline)
[6] = 0.25 µM, library screen: screen2, EWS-FLI1 expression: low (doxycycline-induced shRNA knockdown)
[7] = 0.308 µM, library screen: screen3, EWS-FLI1 expression: high (no doxycycline)
[8] = 0.308 µM, library screen: screen3, EWS-FLI1 expression: low (doxycycline-induced shRNA knockdown)
[9] = 0.926 µM, library screen: screen3, EWS-FLI1 expression: high (no doxycycline)
[10] = 0.926 µM, library screen: screen3, EWS-FLI1 expression: low (doxycycline-induced shRNA knockdown)
[11] = 2.5 µM, library screen: screen1, EWS-FLI1 expression: high (no doxycycline)
[12] = 2.5 µM, library screen: screen1, EWS-FLI1 expression: low (doxycycline-induced shRNA knockdown)
[13] = 2.5 µM, library screen: screen2, EWS-FLI1 expression: high (no doxycycline)
[14] = 2.5 µM, library screen: screen2, EWS-FLI1 expression: low (doxycycline-induced shRNA knockdown)
[15] = 2.8 µM, library screen: screen3, EWS-FLI1 expression: high (no doxycycline)
[16] = 2.8 µM, library screen: screen3, EWS-FLI1 expression: low (doxycycline-induced shRNA knockdown)
[17] = 8.3 µM, library screen: screen3, EWS-FLI1 expression: high (no doxycycline)
[18] = 8.3 µM, library screen: screen3, EWS-FLI1 expression: low (doxycycline-induced shRNA knockdown)
[19] = 25 µM, library screen: screen3, EWS-FLI1 expression: high (no doxycycline)
[20] = 25 µM, library screen: screen3, EWS-FLI1 expression: low (doxycycline-induced shRNA knockdown)

Measured: cell viability (log2)

CC(C)(C)NCC(O)c1ccc(O)c(CO)c1 (stereo not drawn)
inactive: [1] 0.115 | [2] 0.0479 | [3] 0.11 | [4] 0.0606 | [5] 0.14 | [6] 0.0933 | [7] 0.0457 | [8] 0.00999 | [9] 0.0542 | [10] 0.0551 | [11] 0.161 | [12] 0.0729 | [13] 0.216 | [14] 0.0566 | [15] 0.102 | [16] 0.042 | [17] 0.0553 | [18] 0.0618 | [19] 0.0637 | [20] 0.0595

CC(C)=CCc1c2c(c(O)c3c(=O)c(O)c(-c4ccccc4)oc13)C=CC(C)(C)O2
inactive: [3] 0.0748 | [4] 0.0709 | [11] 0.0792 | [12] 0.116

CN(C)[C@@H](CCOc1cccc2ccccc12)c1ccccc1
inactive: [1] 0.00919 | [2] 0.105 | [7] 0.0155 | [8] 0.101 | [9] 0.111 | [10] 0.00844 | [15] 0.127 | [16] 0.138 | [17] -0.0355 | [18] 0.059 | [19] 0.0839 | [20] 0.0383

Nn1nnc2ccccc21
inactive: [5] 0.128 | [6] 0.171 | [13] 0.0307 | [14] 0.0733

CN(C)CCCC1(c2ccc(F)cc2)OCc2cc(C#N)ccc21 (stereo not drawn)
inactive: [5] 0.166 | [6] 0.0806 | [13] 0.0347 | [14] 0.0427

CCCC(CCC)C(=O)O
inactive: [1] 0.0654 | [2] 0.0359 | [3] 0.127 | [4] 0.0898 | [5] 0.1 | [6] 0.102 | [7] 0.0959 | [8] 0.0314 | [9] -0.00782 | [10] 0.0593 | [11] 0.159 | [12] 0.24 | [13] 0.102 | [14] 0.0392 | [15] 0.0123 | [16] 0.0886 | [17] 0.0187 | [18] 0.0553 | [19] -0.0053 | [20] 0.0943

O=C(O)CNC(=O)C(CS)Cc1ccccc1 (stereo not drawn)
inactive: [5] 0.00126 | [6] 0.153 | [13] 0.146 | [14] 0.0189

COC[C@@H](c1ccc(C(F)(F)F)cc1)N1CCN(C2(C)CCN(C(=O)c3c(C)ncnc3C)CC2)C[C@@H]1C
inactive: [1] 0.0241 | [2] 0.0743 | [7] 0.103 | [8] 0.0427 | [9] 0.0552 | [10] 0.0603 | [15] 0.0435 | [16] -0.0282 | [17] 0.118 | [18] 0.021 | [19] 0.0244 | [20] 0.00778

Cc1onc(-c2ccccc2)c1C(=O)N[C@@H]1C(=O)N2[C@@H]1SC(C)(C)[C@@H]2C(=O)O
inactive: [3] 0.0236 | [4] 0.0369 | [11] 0.14 | [12] 0.0664

COc1ccccc1CNCCCCCCNCCCCCCCCNCCCCCCNCc1ccccc1OC
inactive: [5] 0.191 | [6] 0.119 | [13] 0.173 | [14] 0.0261

CC1(C)O[C@H]2[C@H](O)C[C@](O)(C(N)=O)C[C@H]2O1
inactive: [3] -0.0199 | [4] -0.00566 | [11] 0.076 | [12] 0.0924

COc1c2c(cc3occ(-c4ccc5c(c4)OCO5)c(=O)c13)OC(C)(C)C=C2
active: [3] -0.144

COC1=CC(=O)C[C@@H](C)[C@]12Oc1c(Cl)c(OC)cc(OC)c1C2=O
inactive: [3] 0.0797 | [4] 0.0471 | [11] 0.105 | [12] 0.048

CCC(=O)NCC[C@@H]1CCc2ccc3c(c21)CCO3
inactive: [1] 0.0633 | [2] 0.0965 | [7] 0.12 | [8] 0.0812 | [9] 0.0466 | [10] 0.0558 | [15] 0.132 | [16] 0.0504 | [17] 0.111 | [18] 0.0117 | [19] 0.0563 | [20] 0.117

COc1ccc(-c2coc3cc(O)cc(O)c3c2=O)cc1
inactive: [3] 0.0602 | [4] 0.0877 | [11] 0.109 | [12] 0.152

COc1ccccc1N1CCN(CCN2C(=O)CC3(CCCC3)CC2=O)CC1
inactive: [5] 0.133 | [6] 0.109 | [13] 0.153 | [14] 0.0757

COc1cc2c(cc1OC)C(=O)OC2
inactive: [3] 0.0843 | [4] 0.0499 | [11] 0.167 | [12] 0.0734

OCC(O)CN1CCN(c2ccccc2)CC1 (stereo not drawn)
inactive: [3] 0.147 | [4] 0.0623 | [11] 0.169 | [12] 0.148

CN(C)CCC(c1ccc(Cl)cc1)c1ccccn1 (stereo not drawn)
inactive: [3] 0.105 | [4] 0.0524 | [5] 0.231 | [6] 0.122 | [11] 0.0791 | [12] 0.136 | [13] 0.105 | [14] 0.0734

COc1ccc(C(=O)C=Cc2ccccc2)cc1
inactive: [3] 0.0817 | [4] 0.0563 | [11] 0.0612 | [12] 0.0356

CCn1cc(C(=O)O)c(=O)c2cc(F)c(N3CCNCC3)cc21
inactive: [1] 0.145 | [2] 0.0496 | [3] 0.0684 | [4] 0.0633 | [7] 0.0139 | [8] 0.058 | [9] 0.0138 | [10] 0.121 | [11] 0.0971 | [12] 0.0702 | [15] 0.0866 | [16] 0.115 | [17] 0.0448 | [18] 0.11 | [19] 0.0361 | [20] 0.156

COC(=O)c1c(C)cc(OC(=O)c2c(C)cc(O)c(CO)c2O)c(C)c1O
inactive: [3] 0.129 | [4] 0.0318 | [11] 0.139 | [12] 0.0883

CC(=O)O[C@@H]1C=C[C@@]2(C)C(C[C@@H](OC(C)=O)[C@@]3(C)C4=CC(=O)O[C@@H](c5ccoc5)[C@]4(C)CCC23)C1(C)C (stereo partly drawn)
inactive: [3] 0.0555 | [4] 0.12 | [11] 0.1 | [12] 0.125

COc1c(Cl)c(C)c2c(c1Cl)OC(=O)c1c(C)c(Cl)c(O)c(Cl)c1O2
inactive: [3] 0.0361 | [4] 0.0285 | [11] 0.0998 | [12] 0.0885

CC1(C)S[C@@H]2[C@H](N3C(=O)[C@@H](c4ccccc4)NC3(C)C)C(=O)N2[C@H]1C(=O)O
inactive: [3] 0.142 | [4] -0.0693 | [11] 0.203 | [12] 0.125

CCOC(=O)C1=C(C)NC(C)=C(C(=O)OC)C1c1cccc([N+](=O)[O-])c1 (stereo not drawn)
inactive: [3] 0.155 | [4] 0.101 | [5] 0.0744 | [6] 0.0855 | [11] 0.176 | [12] 0.127 | [13] 0.102 | [14] 0.0903

NCC1OC(OC2C(N)CC(N)C(OC3OC(CO)C(O)C(N)C3O)C2O)C(N)C(O)C1O (stereo not drawn)
inactive: [3] 0.0483 | [4] 0.0336 | [11] 0.164 | [12] 0.0237

CC(CN1c2ccccc2Sc2ccccc21)N(C)C (stereo not drawn)
inactive: [3] 0.0849 | [4] 0.173 | [5] 0.103 | [6] 0.084 | [11] 0.117 | [12] 0.228 | [13] 0.14 | [14] 0.00694

CNC(=O)c1ccccc1Sc1ccc2c(/C=C/c3ccccn3)n[nH]c2c1
inactive: [1] -0.00228 | [2] 0.0386 | [7] 0.0978 | [8] 0.044 | [9] 0.0712 | [10] 0.145 | [15] 0.0241 | [16] 0.188 | [18] 0.195 | [20] -0.0147
active: [17] -0.181 | [19] -0.513

O=C(CCCCCCCCCCCCC1CCCC1)Nc1ccc(S(=O)(=O)c2ccc(NC(=O)CCCCCCCCCCCCC3CCCC3)cc2)cc1
inactive: [3] 0.0586 | [4] 0.0308 | [11] 0.0372 | [12] 0.0442

CC(C(=O)O)N1C(=O)C(=Cc2ccccn2)SC1=S (stereo not drawn)
inactive: [11] 0.144 | [12] 0.106
active: [3] -2.05 | [4] -1.9

NS(=O)(=O)c1cc2c(cc1C(F)(F)F)NC(Cc1ccccc1)NS2(=O)=O (stereo not drawn)
inactive: [3] 0.0917 | [4] 0.0266 | [11] 0.0731 | [12] 0.0411

O=C1c2ccccc2-c2n[nH]c3cccc1c23
active: 25 µM, library screen: screen1, EWS-FLI1 expression: high (no doxycycline) -0.11

O=C(c1ccc(OCCN2CCCCC2)cc1)c1c(-c2ccc(O)cc2)sc2cc(O)ccc12
inactive: [1] 0.0446 | [2] 0.0571 | [5] 0.148 | [6] 0.0346 | [7] 0.00719 | [8] 0.00103 | [9] -0.0145 | [10] 0.0373 | [13] 0.144 | [14] 0.0618 | [15] -0.0223 | [16] 0.0185 | [17] -0.0365 | [18] 0.0225 | [19] -0.175 | [20] -0.0203

Cc1cc(O)cc(=O)o1
inactive: [3] 0.041 | [4] -0.033 | [11] 0.0868 | [12] -0.00159

S=P(N1CC1)(N1CC1)N1CC1
inactive: [3] 0.117 | [4] 0.07 | [11] 0.0849 | [12] 0.0978
